From the supplement of paper PMC8728848
This is one part of the list.

Legend:
Assay in all cases: glycan array binding signal (z-score within array); higher = stronger binding
Conditions in all cases: glycan notation: IUPAC condensed, linker removed
[1] = biological target: Glc(a1-4)Glc(a1-4)Glc(a1-4)Glc(a1-4)Glc(a1-4)Glc(a1-4)Glc(a1-4)Glc(a1-4)Glc(a1-4)Glc(a1-4)Glc(a1-4)Glc
Summary of the method: (§1)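 Glycan array data came from 3228 arrays in the Consortium for Functional Glycomics database, and only arrays with an available protein sequence were kept. Glycan names were put into IUPAC-condensed notation, and columns mapping to the same glycan were averaged. The binding signal is a within-array Z-score, averaged across arrays of one protein sequence run at different concentrations or buffers and across linkers. A negative Z-score can be read as non-binding.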

[2] = biological target: Glc(a1-4)Glc(a1-4)Glc(a1-4)Glc(a1-4)Glc(a1-4)Glc(a1-4)Glc(a1-4)Glc(a1-4)Glc(a1-4)Glc(a1-4)Glc(a1-4)Glc(a1-4)Glc
Summary of the method: as §1

Glc(a1-6)Glc = biological target: Glc(a1-6)Glc
Summary of the method: as §1

[3] = biological target: Glc(a1-6)Glc(a1-4)Glc(a1-4)Glc
Summary of the method: as §1

Glc(a1-6)Glc(a1-6)Glc = biological target: Glc(a1-6)Glc(a1-6)Glc
Summary of the method: as §1

[4] = biological target: Glc(a1-6)Glc(a1-6)Glc(a1-6)Glc
Summary of the method: as §1

[5] = biological target: Glc(a1-6)Glc(a1-6)Glc(a1-6)Glc(a1-6)Glc
Summary of the method: as §1

[6] = biological target: Glc(a1-6)Glc(a1-6)Glc(a1-6)Glc(a1-6)Glc(a1-6)Glc
Summary of the method: as §1

[7] = biological target: Glc(a1-6)Glc(a1-6)Glc(a1-6)Glc(a1-6)Glc(a1-6)Glc(a1-6)Glc
Summary of the method: as §1

[8] = biological target: Glc(a1-6)Glc(a1-6)Glc(a1-6)Glc(a1-6)Glc(a1-6)Glc(a1-6)Glc(a1-6)Glc
Summary of the method: as §1

[9] = biological target: Glc(a1-6)Glc(a1-6)Glc(a1-6)Glc(a1-6)Glc(a1-6)Glc(a1-6)Glc(a1-6)Glc(a1-6)Glc
Summary of the method: as §1

[10] = biological target: Glc(a1-6)Glc(a1-6)Glc(a1-6)Glc(a1-6)Glc(a1-6)Glc(a1-6)Glc(a1-6)Glc(a1-6)Glc(a1-6)Glc
Summary of the method: as §1

[11] = biological target: Glc(a1-6)Glc(a1-6)Glc(a1-6)Glc(a1-6)Glc(a1-6)Glc(a1-6)Glc(a1-6)Glc(a1-6)Glc(a1-6)Glc(a1-6)Glc
Summary of the method: as §1

[12] = biological target: Glc(a1-6)Glc(a1-6)Glc(a1-6)Glc(a1-6)Glc(a1-6)Glc(a1-6)Glc(a1-6)Glc(a1-6)Glc(a1-6)Glc(a1-6)Glc(a1-6)Glc
Summary of the method: as §1

[13] = biological target: Glc(a1-6)Glc(a1-6)Glc(a1-6)Glc(a1-6)Glc(a1-6)Glc(a1-6)Glc(a1-6)Glc(a1-6)Glc(a1-6)Glc(a1-6)Glc(a1-6)Glc(a1-6)Glc
Summary of the method: as §1

Glc(b1-3)Glc = biological target: Glc(b1-3)Glc
Summary of the method: as §1

Glc(b1-3)Glc(b1-3)Glc = biological target: Glc(b1-3)Glc(b1-3)Glc
Summary of the method: as §1

[14] = biological target: Glc(b1-3)Glc(b1-3)Glc(b1-3)Glc
Summary of the method: as §1

[15] = biological target: Glc(b1-3)Glc(b1-3)Glc(b1-3)Glc(b1-3)Glc
Summary of the method: as §1

[16] = biological target: Glc(b1-3)Glc(b1-3)Glc(b1-3)Glc(b1-3)Glc(b1-3)Glc
Summary of the method: as §1

[17] = biological target: Glc(b1-3)Glc(b1-3)Glc(b1-3)Glc(b1-3)Glc(b1-3)Glc(b1-3)Glc
Summary of the method: as §1

[18] = biological target: Glc(b1-3)Glc(b1-3)Glc(b1-3)Glc(b1-3)Glc(b1-3)Glc(b1-3)Glc(b1-3)Glc
Summary of the method: as §1

B1: CLEC5A (Homo sapiens), Q9NY25 (protein)
chain: MNWHMIISGLIVVVLKVVGMTLFLLYFPQIFNKSNDGFTTTRSYGTVSQIFGSSSPSPNGFITTRSYGTVCPKDWEFYQARCFFLSTSESSWNESRDFCKGKGSTLAIVNTPEKLKFLQDITDAEKYFIGLIYHREEKRWRWINNSVFNGNVTNQNQNFNCATIGLTKTFDAASCDISYRRICEKNAK
**Q.** For B1, which “glycan array binding signal (z-score)” value [1] is on record?
**A.** 0.162

**Q.** What about the “glycan array binding signal (z-score)” value [2] of the same binder?
**A.** -0.32

**Q.** And the “glycan array binding signal (z-score)” value (Glc(a1-6)Glc)?
**A.** 1.7

**Q.** And the “glycan array binding signal (z-score)” value [3]?
**A.** -0.32

**Q.** What about the “glycan array binding signal (z-score)” value (Glc(a1-6)Glc(a1-6)Glc) of the same binder?
**A.** -0.206

**Q.** What about the “glycan array binding signal (z-score)” value [4] of the same binder?
**A.** -0.198

**Q.** What about the “glycan array binding signal (z-score)” value [5] of the same binder?
**A.** -0.32

**Q.** What about the “glycan array binding signal (z-score)” value [6] of the same binder?
**A.** -0.32

**Q.** What about the “glycan array binding signal (z-score)” value [7] of the same binder?
**A.** 1.51

**Q.** What about the “glycan array binding signal (z-score)” value [8] of the same binder?
**A.** 0.258

**Q.** What about the “glycan array binding signal (z-score)” value [9] of the same binder?
**A.** 1.32

**Q.** What about the “glycan array binding signal (z-score)” value [10] of the same binder?
**A.** -0.32

**Q.** And the “glycan array binding signal (z-score)” value [11]?
**A.** -0.32

**Q.** And the “glycan array binding signal (z-score)” value [12]?
**A.** 0.548

**Q.** What about the “glycan array binding signal (z-score)” value [13] of the same binder?
**A.** 2.19

**Q.** And the “glycan array binding signal (z-score)” value (Glc(b1-3)Glc)?
**A.** -0.32

**Q.** And the “glycan array binding signal (z-score)” value (Glc(b1-3)Glc(b1-3)Glc)?
**A.** 1.13

**Q.** What about the “glycan array binding signal (z-score)” value [14] of the same binder?
**A.** -0.32

**Q.** And the “glycan array binding signal (z-score)” value [15]?
**A.** 6.52

**Q.** And the “glycan array binding signal (z-score)” value [16]?
**A.** -0.32

**Q.** And the “glycan array binding signal (z-score)” value [17]?
**A.** 1.8

**Q.** What about the “glycan array binding signal (z-score)” value [18] of the same binder?
**A.** 0.644
